# The inconclusive results got no clear call from the source; some entries with a clear call stand among them for comparison. For part of these data: Potencies of inconclusive entries are doubtful fits and often do not repeat. The source made the active and inactive calls. The call rests on the fitted dose curve; in most records, active means well fitted curve in the direction sought with a large enough effect; inconclusive means small, poorly fitted or top-dose-only effect, or another doubt; inactive means no such curve, though single readings can be large; an effect the other way counts as inactive or inconclusive.
# Experiments:
# [1] = target: Rap guanine nucleotide exchange factor 3 (Homo sapiens) (UniProt O95398); assay: Confirmatory qHTS for antagonist of cAMP-regulated guanine nucleotide exchange factor 3 (EPAC1) (AID 1645880); further: nearly all actives have a fitted effect of over 55% in size; further: potency means the concentration at half of the fitted maximal effect
# In short: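 Nucleotide exchange uses 100 nM EPAC1, 250 nM RAP1B-BODIPY-GDP and 50 uM GDP, with compounds in a concentration-titration series. After 5 min at room temperature, fluorescence (480 nm ex/540 nm em) is read every 5 min for 30 min. Data are normalized to control ATA and DMSO.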
# [2] = target: Rap guanine nucleotide exchange factor 3 (Homo sapiens) (UniProt O95398); assay: Confirmatory qHTS for agonist of cAMP-regulated guanine nucleotide exchange factor 3 (EPAC1) (AID 1645881); conditions: EPAC1 Rap1B BODIPY-GDP exchange fluorescence; activation: at 154 µM (top of the series), 100% = cAMP control response; further: nearly all actives have a fitted effect of over 75% in size; further: potency means the concentration at half of the fitted maximal effect;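 on activation: EPAC1 catalysed release of BODIPY-GDP from Rap1B seen as fluorescence loss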
# [3] = target: Rap guanine nucleotide exchange factor 4 (Homo sapiens) (UniProt Q8WZA2); assay: Confirmatory qHTS for antagonist of cAMP-regulated guanine nucleotide exchange factor 4 (EPAC2) (AID 1645885); conditions: activity change, negative = inhibition: at 114 µM (top of the series) unless noted; further: on the % scale 0 is the no-effect control and ±100 the full control effect; nearly all actives have a fitted effect of over 25% in size
# [4] = target: Rap guanine nucleotide exchange factor 4 (Homo sapiens) (UniProt Q8WZA2); assay: Confirmatory qHTS for agonist of cAMP-regulated guanine nucleotide exchange factor 4 (EPAC2) (AID 1645884);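 further: nucleotide exchange releases bodipy-GDP from Rap1 and this lowers its fluorescence; potency means the concentration at half of the fitted maximal effect; nearly all actives have a fitted effect of over 65% in size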
# [5] = Primary qHTS for inhibitors of nuclear receptor binding SET domain protein 2 (NSD2) in an isogenic RCH-ACV NSD2 p.E1099K mutant (9B) (AID 1645876); further: nearly all actives have a fitted effect of over 70% in size; further: potency means the concentration at half of the fitted maximal effect
# [6] = Primary qHTS for inhibitors of nuclear receptor binding SET domain protein 2 (NSD2) in an RCH-ACV wild type WT cells (2C) (AID 1645877); further: potency means the concentration at half of the fitted maximal effect; nearly all actives have a fitted effect of over 70% in size
# [7] = target: Tumor susceptibility gene 101 protein (Homo sapiens) (UniProt Q99816); assay: qHTS Assay for Iinhibitors of HIV-1 Budding by Blocking the Interaction of PTAP/TSG101: Hit Validation (AID 651600); further: potency means the concentration at half of the fitted maximal effect; nearly all actives have a fitted effect of over 70% in size
# In short: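 Tsg101 binding domain 10 uM + FITC-PTAP peptide 50 nM (final), 10 mM HEPES pH 7.5/0.15 M NaCl/0.01% Tween 20/3 mM EDTA/0.1 mM TCEP; 20 min RT; FP read, FITC filters.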
# [8] = target: Flap endonuclease 1 (Homo sapiens) (UniProt P39748); assay: qHTS Assay for the Inhibitors of FEN1: Confirmatory Assay for Cherry-picked Compounds (AID 720498); conditions: FEN1 flap cleavage, TAMRA/BHQ2 fluorogenic DNA substrate; further: potency means the concentration at half of the fitted maximal effect; nearly all actives have a fitted effect of over 60% in size
# In short: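 FEN1 at 10 nM was preincubated with compound for 15 min at room temperature, then 50 nM (final) double-flap DNA substrate was added. TAMRA fluorescence released from the BHQ-2-quenched flap was read at 0 and 15 min (ex 525/em 598 nm).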
# [9] = target: Rap guanine nucleotide exchange factor 3 (Homo sapiens) (UniProt O95398); assay: Counterscreen qHTS for agonist of cAMP-regulated guanine nucleotide exchange factor 3 (EPAC1) (AID 1645889); conditions: EPAC1 Rap1B-BODIPY-GDP exchange, fluorescence; activation: at 154 µM (top of the series) unless noted; further: nearly all actives have a fitted effect of over 40% in size; further: potency means the concentration at half of the fitted maximal effect; on activation: % of control where 0% means no effect
# In short: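 Measured: fluorescence of BODIPY-GDP bound to Rap1B, which falls as exchange proceeds. Conditions include 50 uM competing GDP, 5 and 30 min reads, and a later cAMP challenge for antagonist detection.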
# [10] = Primary fluorescence-based thiol-reactive (MSTI) qHTS assay for identification of artifact compounds. (AID 1845221);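 further: potency means the concentration at half of the fitted maximal effect; thiol-reactive compounds lower the probe fluorescence signal; nearly all actives have a fitted effect of over 65% in size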
# In short: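 MSTI probe at 4 uM final in 2% DMSO/PBS pH 7.4; compounds, 1 h at room temperature in dark. Fluorescence Ex/Em 525/598 nm, normalised to Acetyl-MSTI and MSTI, fitted to 4-parameter Hill.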
# Tags describe the fitted curve by direction and shape.
# Sequence of UniProt Q8WZA2 (Q8WZA2 whole entry, looked up, the tested form may be a part): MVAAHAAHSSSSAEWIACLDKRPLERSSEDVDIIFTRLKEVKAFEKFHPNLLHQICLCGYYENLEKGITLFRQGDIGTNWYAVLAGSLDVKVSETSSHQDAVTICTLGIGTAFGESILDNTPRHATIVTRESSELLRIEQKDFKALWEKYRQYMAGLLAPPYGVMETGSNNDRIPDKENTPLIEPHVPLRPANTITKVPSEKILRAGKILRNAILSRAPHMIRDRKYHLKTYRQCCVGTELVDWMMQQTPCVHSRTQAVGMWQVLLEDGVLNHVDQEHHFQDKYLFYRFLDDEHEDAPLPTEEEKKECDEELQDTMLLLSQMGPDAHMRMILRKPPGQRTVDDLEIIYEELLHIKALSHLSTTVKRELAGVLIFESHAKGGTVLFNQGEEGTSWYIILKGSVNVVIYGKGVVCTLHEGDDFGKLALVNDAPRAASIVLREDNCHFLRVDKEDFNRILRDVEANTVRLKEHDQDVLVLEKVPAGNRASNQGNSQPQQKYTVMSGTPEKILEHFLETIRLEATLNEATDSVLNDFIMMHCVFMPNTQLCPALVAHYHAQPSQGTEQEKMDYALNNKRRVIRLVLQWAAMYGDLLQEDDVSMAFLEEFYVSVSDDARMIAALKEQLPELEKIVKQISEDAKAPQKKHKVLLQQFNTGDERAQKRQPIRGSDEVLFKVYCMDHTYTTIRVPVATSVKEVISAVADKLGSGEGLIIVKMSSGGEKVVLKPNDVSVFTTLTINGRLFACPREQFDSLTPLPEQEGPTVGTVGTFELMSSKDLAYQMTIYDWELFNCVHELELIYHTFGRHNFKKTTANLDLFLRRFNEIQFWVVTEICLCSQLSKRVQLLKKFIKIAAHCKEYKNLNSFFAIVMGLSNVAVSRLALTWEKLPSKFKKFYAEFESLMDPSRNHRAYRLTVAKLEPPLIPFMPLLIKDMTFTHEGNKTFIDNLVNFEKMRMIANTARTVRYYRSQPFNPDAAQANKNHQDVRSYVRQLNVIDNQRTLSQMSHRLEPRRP
# Sequence of UniProt O95398 (O95398 whole entry, looked up): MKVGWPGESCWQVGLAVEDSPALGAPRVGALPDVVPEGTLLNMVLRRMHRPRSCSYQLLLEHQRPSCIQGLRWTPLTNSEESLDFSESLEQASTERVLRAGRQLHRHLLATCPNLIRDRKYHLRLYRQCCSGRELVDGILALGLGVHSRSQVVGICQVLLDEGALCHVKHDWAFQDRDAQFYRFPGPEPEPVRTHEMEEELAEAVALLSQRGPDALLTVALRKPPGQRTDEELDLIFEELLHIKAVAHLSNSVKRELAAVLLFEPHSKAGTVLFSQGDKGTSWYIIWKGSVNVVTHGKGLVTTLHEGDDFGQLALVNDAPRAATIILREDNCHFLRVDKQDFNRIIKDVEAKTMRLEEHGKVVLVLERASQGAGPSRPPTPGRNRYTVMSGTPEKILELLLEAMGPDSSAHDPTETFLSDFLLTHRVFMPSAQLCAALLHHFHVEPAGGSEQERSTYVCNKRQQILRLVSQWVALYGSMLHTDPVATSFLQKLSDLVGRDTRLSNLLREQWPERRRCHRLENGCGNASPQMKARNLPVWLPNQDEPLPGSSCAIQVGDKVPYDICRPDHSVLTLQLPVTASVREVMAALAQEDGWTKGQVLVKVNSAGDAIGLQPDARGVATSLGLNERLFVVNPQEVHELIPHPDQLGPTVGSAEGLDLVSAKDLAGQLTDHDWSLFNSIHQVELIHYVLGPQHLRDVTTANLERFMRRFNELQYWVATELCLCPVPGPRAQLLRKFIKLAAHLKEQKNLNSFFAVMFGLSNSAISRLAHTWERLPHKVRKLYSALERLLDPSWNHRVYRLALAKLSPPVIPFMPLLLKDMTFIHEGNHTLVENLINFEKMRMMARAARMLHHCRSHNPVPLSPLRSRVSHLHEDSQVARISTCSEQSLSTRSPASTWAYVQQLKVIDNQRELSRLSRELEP
# Sequence of UniProt Q99816 (Q99816 whole entry, looked up, the tested form may be a part): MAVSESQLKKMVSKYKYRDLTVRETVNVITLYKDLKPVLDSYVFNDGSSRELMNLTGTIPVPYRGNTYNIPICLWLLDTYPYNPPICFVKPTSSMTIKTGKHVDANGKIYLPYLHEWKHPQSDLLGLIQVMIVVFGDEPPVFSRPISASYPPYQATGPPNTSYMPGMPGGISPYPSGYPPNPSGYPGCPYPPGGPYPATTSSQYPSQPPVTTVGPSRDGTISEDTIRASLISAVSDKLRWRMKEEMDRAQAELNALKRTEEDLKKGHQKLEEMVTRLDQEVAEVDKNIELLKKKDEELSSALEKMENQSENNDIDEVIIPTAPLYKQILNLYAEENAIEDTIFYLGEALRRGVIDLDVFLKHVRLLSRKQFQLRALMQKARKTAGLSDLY
# Sequence of UniProt P39748 (P39748 whole entry, looked up): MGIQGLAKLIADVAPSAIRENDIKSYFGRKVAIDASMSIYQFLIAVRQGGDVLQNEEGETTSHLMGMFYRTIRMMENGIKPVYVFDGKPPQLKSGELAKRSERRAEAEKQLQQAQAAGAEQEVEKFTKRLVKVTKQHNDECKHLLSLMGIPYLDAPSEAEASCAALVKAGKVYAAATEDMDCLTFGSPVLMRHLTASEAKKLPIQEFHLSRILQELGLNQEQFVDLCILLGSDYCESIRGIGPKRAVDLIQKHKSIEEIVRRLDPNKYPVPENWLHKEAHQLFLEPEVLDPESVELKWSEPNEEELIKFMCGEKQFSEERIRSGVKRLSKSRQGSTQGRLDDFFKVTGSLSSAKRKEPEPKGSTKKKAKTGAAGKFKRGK
structure (smiles),measurement,setting,value
O=c1[nH]c(=S)n(-c2ccc(Cl)cc2)c(O)c1C=Nc1ccc(N2CCOCC2)cc1,Potency,[1],inactive
same,Potency,[2],"inconclusive: 112 µM [activator, partial curve, poor fit]"
same,Potency,[3],inactive
CCOC(=O)[C@]12Cc3cc(Cl)ccc3[C@H]1N(C(C)C)C(=O)c1ccccc12,Potency,[1],"inconclusive: 42.6 µM [inhibitor, partial curve]"
CCOC(=O)c1cc(CC)sc1/N=C/c1c(O)[nH]c(=S)[nH]c1=O,Potency,[1],inactive
same,Potency,[2],active: 100 µM
CCOC(=O)c1c(-c2ccccc2)oc2ccc(OC(=O)N(C)C)cc12,Potency,[1],"inconclusive: 95.3 µM [inhibitor, partial curve, poor fit]"
O=C(c1cc(-c2ccc(Cl)cc2)n(-c2ccc(Cl)cc2Cl)n1)N1CCOCC1,Potency,[1],"inconclusive: 19 µM [inhibitor, partial curve, poor fit]"
same,Potency,[2],inactive
same,Potency,[4],"inconclusive: 56.2 µM [activator, partial curve, poor fit]"
O=C(O)CNC(=O)C1C(=O)N(C2CCCCC2)C(=O)N(C2CCCCC2)C1=O,Potency,[5],inactive
same,Potency,[6],"inconclusive: 18.6 µM [inhibitor, partial curve, poor fit]"
Nc1ccc2ccc3cccc[n+]3c2c1,Potency,[7],active: 4.11 µM
same,Potency,[8],"inconclusive: 47.8 µM [inhibitor, partial curve]"
same,Potency,[1],inactive
same,Potency,[2],"inconclusive: 126 µM [activator, partial curve, poor fit]"
same,Potency,[4],active: 100 µM
same,Potency,[9],active: 39.8 µM
Nc1c(Br)cc2c3c(cccc13)-c1ccccc1-2,Potency,[1],"inconclusive: 35.5 µM [inhibitor, full curve]"
same,Potency,[2],"inconclusive: 56.2 µM [activator, partial curve, poor fit]"
same,activation,[9],inconclusive: 51.6% [activator] [at 30.8 µM]
COC1CC(=O)C23C(=O)NC(CC(C)C)C2C(C)=C(C)C(OO)C3/C=C(\C)CCC(O)C1O (centres undefined),Potency,[5],"inconclusive: 14.2 µM [inhibitor, single point]"
same,Potency,[6],"inconclusive: 11.2 µM [inhibitor, single point]"
same,Potency,[10],"inconclusive: 9.22 µM [inhibitor, partial curve]"

# — PubChem BioAssay (NCATS)
